Results: article PMC11661359, “Structure guided functional analysis of the S. cerevisiae Mre11 complex” (Research Square, 2024)
No constants are given. Whether binding was seen depends on the method and setting. Binding seen in cells or lysates may run through a third protein. Some entries that bind do so weakly or less than the wild type.

T1: Mre11 (wild type, in S. cerevisiae cell extracts) (S. cerevisiae) (UniProt P32829)
T1 sequence: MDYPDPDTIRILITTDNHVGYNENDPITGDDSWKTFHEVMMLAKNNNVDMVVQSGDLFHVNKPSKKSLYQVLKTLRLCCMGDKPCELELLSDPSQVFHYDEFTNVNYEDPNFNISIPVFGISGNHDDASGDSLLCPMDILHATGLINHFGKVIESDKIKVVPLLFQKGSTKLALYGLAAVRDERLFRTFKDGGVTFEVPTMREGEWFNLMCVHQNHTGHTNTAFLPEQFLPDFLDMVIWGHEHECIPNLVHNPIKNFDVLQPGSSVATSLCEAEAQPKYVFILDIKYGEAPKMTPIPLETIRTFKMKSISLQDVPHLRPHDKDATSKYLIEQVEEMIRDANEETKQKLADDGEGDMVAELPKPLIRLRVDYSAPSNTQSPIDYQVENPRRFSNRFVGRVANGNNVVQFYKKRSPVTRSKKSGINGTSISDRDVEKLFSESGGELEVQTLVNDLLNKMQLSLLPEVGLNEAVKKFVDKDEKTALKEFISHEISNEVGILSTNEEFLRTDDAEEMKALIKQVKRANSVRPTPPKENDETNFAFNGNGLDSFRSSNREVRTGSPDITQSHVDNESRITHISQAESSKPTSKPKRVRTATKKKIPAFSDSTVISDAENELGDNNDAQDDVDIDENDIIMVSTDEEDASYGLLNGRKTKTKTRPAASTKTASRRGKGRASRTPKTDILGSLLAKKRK


Biological target: T1, Mre11 (wild type, in S. cerevisiae cell extracts) (S. cerevisiae)
Test: co-IP; cells grown at 30°C or 37°C; Rad50, Mre11 or Xrs2 immunoprecipitated from cell extracts, western blot with anti-Rad50, anti-Mre11 or anti-Xrs2 antibodies

Binder	binding
Rad50-R13A (enzyme, UniProt P12753 1-1312) MSAIYKLSIQGIASFDSNDRETIEFGKPLTLIVGMNGSGKTTIIECLKYATTGDLPPNSKGGVFIHDPKITGEKDIRAQVKLAFTSANGLNMIVTRNIQLLMKKTTTTFKTLEGQLVAINNSGDRSTLSTRSLELDAQVPLYLGVPKAILEYVIFCHQEDSLWPLSEPSNLKKKFDEIFQAMKFTKALDNLKSIKKDMSVDIKLLKQSVEHLKLDKDRSKAMKLNIHQLQTKIDQYNEEVSEIESQLNEITEKSDKLFKSNQDFQKILSKVENLKNTKLSISDQVKRLSNSIDILDLSKPDLQNLLANFSKVLMDKNNQLRDLETDISSLKDRQSSLQSLSNSLIRRQGELEAGKETYEKNRNHLSSLKEAFQHKFQGLSNIENSDMAQVNHEMSQFKAFISQDLTDTIDQFAKDIQLKETNLSDLIKSITVDSQNLEYNKKDRSKLIHDSEELAEKLKSFKSLSTQDSLNHELENLKTYKEKLQSWESENIIPKLNQKIEEKNNEMIILENQIEKFQDRIMKTNQQADLYAKLGLIKKSINTKLDELQKITEKLQNDSRIRQVFPLTQEFQRADLEMDFQKLFINMQKNIAINNKKMHELDRRYTNALYNLNTIEKDLQDNQKSKEKVIQLLSENLPEDCTIDEYNDVLEETELSYKTALENLKMHQTTLEFNRKALEIAERDSCCYLCSRKFENESFKSKLLQELKTKTDANFEKTLKDTVQNEKEYLHSLRLLEKHIITLNSINEKIDNSQKCLEKAKEETKTSKSKLDELEVDSTKLKDEKELAESEIRPLIEKFTYLEKELKDLENSSKTISEELSIYNTSEDGIQTVDELRDQQRKMNDSLRELRKTISDLQMEKDEKVRENSRMINLIKEKELTVSEIESSLTQKQNIDDSIRSKRENINDIDSRVKELEARIISLKNKKDEAQSVLDKVKNERDIQVRNKQKTVADINRLIDRFQTIYNEVVDFEAKGFDELQTTIKELELNKAQMLELKEQLDLKSNEVNEEKRKLADSNNEEKNLKQNLELIELKSQLQHIESEISRLDVQNAEAERDKYQEESLRLRTRFEKLSSENAGKLGEMKQLQNQIDSLTHQLRTDYKDIEKNYHKEWVELQTRSFVTDDIDVYSKALDSAIMKYHGLKMQDINRIIDELWKRTYSGTDIDTIKIRSDEVSSTVKGKSYNYRVVMYKQDVELDMRGRCSAGQKVLASIIIRLALSETFGANCGVIALDEPTTNLDEENIESLAKSLHNIINMRRHQKNFQLIVITHDEKFLGHMNAAAFTDHFFKVKRDDRQKSQIEWVDINRVTY	binds
Rad50-N36A (enzyme, UniProt P12753 1-1312) MSAIYKLSIQGIRSFDSNDRETIEFGKPLTLIVGMAGSGKTTIIECLKYATTGDLPPNSKGGVFIHDPKITGEKDIRAQVKLAFTSANGLNMIVTRNIQLLMKKTTTTFKTLEGQLVAINNSGDRSTLSTRSLELDAQVPLYLGVPKAILEYVIFCHQEDSLWPLSEPSNLKKKFDEIFQAMKFTKALDNLKSIKKDMSVDIKLLKQSVEHLKLDKDRSKAMKLNIHQLQTKIDQYNEEVSEIESQLNEITEKSDKLFKSNQDFQKILSKVENLKNTKLSISDQVKRLSNSIDILDLSKPDLQNLLANFSKVLMDKNNQLRDLETDISSLKDRQSSLQSLSNSLIRRQGELEAGKETYEKNRNHLSSLKEAFQHKFQGLSNIENSDMAQVNHEMSQFKAFISQDLTDTIDQFAKDIQLKETNLSDLIKSITVDSQNLEYNKKDRSKLIHDSEELAEKLKSFKSLSTQDSLNHELENLKTYKEKLQSWESENIIPKLNQKIEEKNNEMIILENQIEKFQDRIMKTNQQADLYAKLGLIKKSINTKLDELQKITEKLQNDSRIRQVFPLTQEFQRADLEMDFQKLFINMQKNIAINNKKMHELDRRYTNALYNLNTIEKDLQDNQKSKEKVIQLLSENLPEDCTIDEYNDVLEETELSYKTALENLKMHQTTLEFNRKALEIAERDSCCYLCSRKFENESFKSKLLQELKTKTDANFEKTLKDTVQNEKEYLHSLRLLEKHIITLNSINEKIDNSQKCLEKAKEETKTSKSKLDELEVDSTKLKDEKELAESEIRPLIEKFTYLEKELKDLENSSKTISEELSIYNTSEDGIQTVDELRDQQRKMNDSLRELRKTISDLQMEKDEKVRENSRMINLIKEKELTVSEIESSLTQKQNIDDSIRSKRENINDIDSRVKELEARIISLKNKKDEAQSVLDKVKNERDIQVRNKQKTVADINRLIDRFQTIYNEVVDFEAKGFDELQTTIKELELNKAQMLELKEQLDLKSNEVNEEKRKLADSNNEEKNLKQNLELIELKSQLQHIESEISRLDVQNAEAERDKYQEESLRLRTRFEKLSSENAGKLGEMKQLQNQIDSLTHQLRTDYKDIEKNYHKEWVELQTRSFVTDDIDVYSKALDSAIMKYHGLKMQDINRIIDELWKRTYSGTDIDTIKIRSDEVSSTVKGKSYNYRVVMYKQDVELDMRGRCSAGQKVLASIIIRLALSETFGANCGVIALDEPTTNLDEENIESLAKSLHNIINMRRHQKNFQLIVITHDEKFLGHMNAAAFTDHFFKVKRDDRQKSQIEWVDINRVTY	binds
Rad50-W1157Y (enzyme, UniProt P12753 1-1312) MSAIYKLSIQGIRSFDSNDRETIEFGKPLTLIVGMNGSGKTTIIECLKYATTGDLPPNSKGGVFIHDPKITGEKDIRAQVKLAFTSANGLNMIVTRNIQLLMKKTTTTFKTLEGQLVAINNSGDRSTLSTRSLELDAQVPLYLGVPKAILEYVIFCHQEDSLWPLSEPSNLKKKFDEIFQAMKFTKALDNLKSIKKDMSVDIKLLKQSVEHLKLDKDRSKAMKLNIHQLQTKIDQYNEEVSEIESQLNEITEKSDKLFKSNQDFQKILSKVENLKNTKLSISDQVKRLSNSIDILDLSKPDLQNLLANFSKVLMDKNNQLRDLETDISSLKDRQSSLQSLSNSLIRRQGELEAGKETYEKNRNHLSSLKEAFQHKFQGLSNIENSDMAQVNHEMSQFKAFISQDLTDTIDQFAKDIQLKETNLSDLIKSITVDSQNLEYNKKDRSKLIHDSEELAEKLKSFKSLSTQDSLNHELENLKTYKEKLQSWESENIIPKLNQKIEEKNNEMIILENQIEKFQDRIMKTNQQADLYAKLGLIKKSINTKLDELQKITEKLQNDSRIRQVFPLTQEFQRADLEMDFQKLFINMQKNIAINNKKMHELDRRYTNALYNLNTIEKDLQDNQKSKEKVIQLLSENLPEDCTIDEYNDVLEETELSYKTALENLKMHQTTLEFNRKALEIAERDSCCYLCSRKFENESFKSKLLQELKTKTDANFEKTLKDTVQNEKEYLHSLRLLEKHIITLNSINEKIDNSQKCLEKAKEETKTSKSKLDELEVDSTKLKDEKELAESEIRPLIEKFTYLEKELKDLENSSKTISEELSIYNTSEDGIQTVDELRDQQRKMNDSLRELRKTISDLQMEKDEKVRENSRMINLIKEKELTVSEIESSLTQKQNIDDSIRSKRENINDIDSRVKELEARIISLKNKKDEAQSVLDKVKNERDIQVRNKQKTVADINRLIDRFQTIYNEVVDFEAKGFDELQTTIKELELNKAQMLELKEQLDLKSNEVNEEKRKLADSNNEEKNLKQNLELIELKSQLQHIESEISRLDVQNAEAERDKYQEESLRLRTRFEKLSSENAGKLGEMKQLQNQIDSLTHQLRTDYKDIEKNYHKEWVELQTRSFVTDDIDVYSKALDSAIMKYHGLKMQDINRIIDELYKRTYSGTDIDTIKIRSDEVSSTVKGKSYNYRVVMYKQDVELDMRGRCSAGQKVLASIIIRLALSETFGANCGVIALDEPTTNLDEENIESLAKSLHNIINMRRHQKNFQLIVITHDEKFLGHMNAAAFTDHFFKVKRDDRQKSQIEWVDINRVTY	binds weakly
Rad50-K103A K104A R1201A (enzyme, UniProt P12753 1-1312) MSAIYKLSIQGIRSFDSNDRETIEFGKPLTLIVGMNGSGKTTIIECLKYATTGDLPPNSKGGVFIHDPKITGEKDIRAQVKLAFTSANGLNMIVTRNIQLLMAATTTTFKTLEGQLVAINNSGDRSTLSTRSLELDAQVPLYLGVPKAILEYVIFCHQEDSLWPLSEPSNLKKKFDEIFQAMKFTKALDNLKSIKKDMSVDIKLLKQSVEHLKLDKDRSKAMKLNIHQLQTKIDQYNEEVSEIESQLNEITEKSDKLFKSNQDFQKILSKVENLKNTKLSISDQVKRLSNSIDILDLSKPDLQNLLANFSKVLMDKNNQLRDLETDISSLKDRQSSLQSLSNSLIRRQGELEAGKETYEKNRNHLSSLKEAFQHKFQGLSNIENSDMAQVNHEMSQFKAFISQDLTDTIDQFAKDIQLKETNLSDLIKSITVDSQNLEYNKKDRSKLIHDSEELAEKLKSFKSLSTQDSLNHELENLKTYKEKLQSWESENIIPKLNQKIEEKNNEMIILENQIEKFQDRIMKTNQQADLYAKLGLIKKSINTKLDELQKITEKLQNDSRIRQVFPLTQEFQRADLEMDFQKLFINMQKNIAINNKKMHELDRRYTNALYNLNTIEKDLQDNQKSKEKVIQLLSENLPEDCTIDEYNDVLEETELSYKTALENLKMHQTTLEFNRKALEIAERDSCCYLCSRKFENESFKSKLLQELKTKTDANFEKTLKDTVQNEKEYLHSLRLLEKHIITLNSINEKIDNSQKCLEKAKEETKTSKSKLDELEVDSTKLKDEKELAESEIRPLIEKFTYLEKELKDLENSSKTISEELSIYNTSEDGIQTVDELRDQQRKMNDSLRELRKTISDLQMEKDEKVRENSRMINLIKEKELTVSEIESSLTQKQNIDDSIRSKRENINDIDSRVKELEARIISLKNKKDEAQSVLDKVKNERDIQVRNKQKTVADINRLIDRFQTIYNEVVDFEAKGFDELQTTIKELELNKAQMLELKEQLDLKSNEVNEEKRKLADSNNEEKNLKQNLELIELKSQLQHIESEISRLDVQNAEAERDKYQEESLRLRTRFEKLSSENAGKLGEMKQLQNQIDSLTHQLRTDYKDIEKNYHKEWVELQTRSFVTDDIDVYSKALDSAIMKYHGLKMQDINRIIDELWKRTYSGTDIDTIKIRSDEVSSTVKGKSYNYRVVMYKQDVELDMAGRCSAGQKVLASIIIRLALSETFGANCGVIALDEPTTNLDEENIESLAKSLHNIINMRRHQKNFQLIVITHDEKFLGHMNAAAFTDHFFKVKRDDRQKSQIEWVDINRVTY	binds
